# Laboratory results: the supplement of paper PMC8728848
# Some of the results follow.
# B1: HA-11100 (Pseudomonas aeruginosa), Q02G51_PSEAB (protein)
# chain: QFNPNEIKISQQGKTTLIDQSTQRAIINWKGFDVSADEAVRFNQPGVTSSTLNRVTAGQESVIAGRISAPGQVIIYNSNGVVFSGSAKVDVGSLITTTANISDEHFRQGKLIFDQPGNPDARIVNDGSISVAEKGLAAFVAPSVANNGVINARLGTVAMAAGNAATIDLYG
# Tests used:
# Test in all cases: glycan array binding signal (z-score within array); higher = stronger binding
# Details in all cases: glycan notation: IUPAC condensed, linker removed
# [1] = target: Gal(b1-4)GlcNAc(b1-2)Man(a1-6)[GlcNAc(b1-2)Man(a1-3)]Man(b1-4)GlcNAc(b1-4)GlcNAc
# How it was run: (§1)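 Glycan array binding is given as a within-array Z-score, which can be read as non-binding when negative. The arrays, 3228 of them, came from the Consortium for Functional Glycomics database and were retained only where the protein sequence was available. Z-scores were averaged across arrays of the same protein sequence at different concentrations or buffers and across linkers.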
# [2] = target: Gal(b1-4)GlcNAc(b1-2)Man(a1-6)[Man(a1-3)]Man(b1-4)GlcNAc(b1-4)GlcNAc
# How it was run: as §1
# [3] = target: Gal(b1-4)GlcNAc(b1-2)[Gal(b1-4)GlcNAc(b1-4)]Man(a1-3)[Gal(b1-4)GlcNAc(b1-2)Man(a1-6)]Man(b1-4)GlcNAc(b1-4)GlcNAc
# How it was run: as §1
# [4] = target: Gal(b1-4)GlcNAc(b1-2)[Gal(b1-4)GlcNAc(b1-4)]Man(a1-3)[Gal(b1-4)GlcNAc(b1-2)[Gal(b1-4)GlcNAc(b1-6)]Man(a1-6)]Man(b1-4)GlcNAc(b1-4)GlcNAc
# How it was run: as §1
# [5] = target: Gal(b1-4)GlcNAc(b1-2)[Gal(b1-4)GlcNAc(b1-4)]Man(a1-3)[GlcNAc(b1-4)][Gal(b1-4)GlcNAc(b1-2)Man(a1-6)]Man(b1-4)GlcNAc(b1-4)GlcNAc
# How it was run: as §1
# [6] = target: Gal(b1-4)GlcNAc(b1-2)[Gal(b1-4)GlcNAc(b1-4)]Man(a1-3)[GlcNAc(b1-4)][Gal(b1-4)GlcNAc(b1-2)[Gal(b1-4)GlcNAc(b1-6)]Man(a1-6)]Man(b1-4)GlcNAc(b1-4)GlcNAc
# How it was run: as §1
# [7] = target: Gal(b1-4)GlcNAc(b1-2)[Gal(b1-4)GlcNAc(b1-6)]Man(a1-6)[Gal(b1-4)GlcNAc(b1-2)Man(a1-3)]Man(b1-4)GlcNAc(b1-4)GlcNAc
# How it was run: as §1
# [8] = target: Gal(b1-4)GlcNAc(b1-2)[Gal(b1-4)GlcNAc(b1-6)]Man(a1-6)[Gal(b1-4)GlcNAc(b1-2)Man(a1-3)]Man(b1-4)GlcNAc(b1-4)[Fuc(a1-6)]GlcNAc
# How it was run: as §1
# [9] = target: Gal(b1-4)GlcNAc(b1-2)[Gal(b1-4)GlcNAc(b1-6)]Man(a1-6)[GlcNAc(b1-4)][Gal(b1-4)GlcNAc(b1-2)Man(a1-3)]Man(b1-4)GlcNAc(b1-4)GlcNAc
# How it was run: as §1
# [10] = target: Gal(b1-4)GlcNAc(b1-2)[Gal(b1-4)GlcNAc(b1-6)]Man(a1-6)[GlcNAc(b1-4)][Gal(b1-4)GlcNAc(b1-2)[Gal(b1-4)GlcNAc(b1-4)]Man(a1-3)]Man(b1-4)GlcNAc(b1-4)[Fuc(a1-6)]GlcNAc
# How it was run: as §1
# [11] = target: Gal(b1-4)GlcNAc(b1-3)Gal(b1-3)GalNAc
# How it was run: as §1
# [12] = target: Gal(b1-4)GlcNAc(b1-3)Gal(b1-3)GlcNAc
# How it was run: as §1
# [13] = target: Gal(b1-4)GlcNAc(b1-3)Gal(b1-4)Glc
# How it was run: as §1
# [14] = target: Gal(b1-4)GlcNAc(b1-3)Gal(b1-4)GlcNAc
# How it was run: as §1
# [15] = target: Gal(b1-4)GlcNAc(b1-3)Gal(b1-4)GlcNAc(b1-2)Man(a1-3)[Gal(b1-4)GlcNAc(b1-3)Gal(b1-4)GlcNAc(b1-2)Man(a1-6)]Man(b1-4)GlcNAc(b1-4)GlcNAc
# How it was run: as §1
# [16] = target: Gal(b1-4)GlcNAc(b1-3)Gal(b1-4)GlcNAc(b1-2)Man(a1-3)[Gal(b1-4)GlcNAc(b1-3)Gal(b1-4)GlcNAc(b1-2)Man(a1-6)]Man(b1-4)GlcNAc(b1-4)[Fuc(a1-6)]GlcNAc
# How it was run: as §1
# [17] = target: Gal(b1-4)GlcNAc(b1-3)Gal(b1-4)GlcNAc(b1-2)[Gal(b1-4)GlcNAc(b1-3)Gal(b1-4)GlcNAc(b1-6)]Man(a1-6)[Gal(b1-4)GlcNAc(b1-3)Gal(b1-4)GlcNAc(b1-2)Man(a1-3)]Man(b1-4)GlcNAc(b1-4)GlcNAc
# How it was run: as §1
# [18] = target: Gal(b1-4)GlcNAc(b1-3)Gal(b1-4)GlcNAc(b1-2)[Gal(b1-4)GlcNAc(b1-3)Gal(b1-4)GlcNAc(b1-6)]Man(a1-6)[Gal(b1-4)GlcNAc(b1-3)Gal(b1-4)GlcNAc(b1-2)Man(a1-3)]Man(b1-4)GlcNAc(b1-4)[Fuc(a1-6)]GlcNAc
# How it was run: as §1
# [19] = target: Gal(b1-4)GlcNAc(b1-3)Gal(b1-4)GlcNAc(b1-3)Gal(b1-4)GlcNAc
# How it was run: as §1
# [20] = target: Gal(b1-4)GlcNAc(b1-3)Gal(b1-4)GlcNAc(b1-3)Gal(b1-4)GlcNAc(b1-2)Man(a1-3)[Gal(b1-4)GlcNAc(b1-3)Gal(b1-4)GlcNAc(b1-3)Gal(b1-4)GlcNAc(b1-2)Man(a1-6)]Man(b1-4)GlcNAc(b1-4)GlcNAc
# How it was run: as §1
# [21] = target: Gal(b1-4)GlcNAc(b1-3)Gal(b1-4)GlcNAc(b1-3)Gal(b1-4)GlcNAc(b1-2)Man(a1-3)[Gal(b1-4)GlcNAc(b1-3)Gal(b1-4)GlcNAc(b1-3)Gal(b1-4)GlcNAc(b1-2)Man(a1-6)]Man(b1-4)GlcNAc(b1-4)[Fuc(a1-6)]GlcNAc
# How it was run: as §1
# [22] = target: Gal(b1-4)GlcNAc(b1-3)Gal(b1-4)GlcNAc(b1-3)Gal(b1-4)GlcNAc(b1-2)[Gal(b1-4)GlcNAc(b1-3)Gal(b1-4)GlcNAc(b1-3)Gal(b1-4)GlcNAc(b1-6)]Man(a1-6)[Gal(b1-4)GlcNAc(b1-3)Gal(b1-4)GlcNAc(b1-3)Gal(b1-4)GlcNAc(b1-2)Man(a1-3)]Man(b1-4)GlcNAc(b1-4)[Fuc(a1-6)]GlcNAc
# How it was run: as §1
binder,measurement,setting,value
B1,glycan array binding signal (z-score),[1],-0.042
same,glycan array binding signal (z-score),[2],0.346
same,glycan array binding signal (z-score),[3],-0.326
same,glycan array binding signal (z-score),[4],0.331
same,glycan array binding signal (z-score),[5],0.248
same,glycan array binding signal (z-score),[6],3.28
same,glycan array binding signal (z-score),[7],7.59
same,glycan array binding signal (z-score),[8],0.518
same,glycan array binding signal (z-score),[9],-0.223
same,glycan array binding signal (z-score),[10],0.438
same,glycan array binding signal (z-score),[11],-0.34
same,glycan array binding signal (z-score),[12],-0.236
same,glycan array binding signal (z-score),[13],-0.184
same,glycan array binding signal (z-score),[14],-0.048
same,glycan array binding signal (z-score),[15],0.193
same,glycan array binding signal (z-score),[16],10.5
same,glycan array binding signal (z-score),[17],5.77
same,glycan array binding signal (z-score),[18],2.36
same,glycan array binding signal (z-score),[19],-0.42
same,glycan array binding signal (z-score),[20],1.48
same,glycan array binding signal (z-score),[21],0.632
same,glycan array binding signal (z-score),[22],0.663
